# Test results from publication PMC4336329 (PLoS ONE, 2015).
# About 14,000 (4.5%) of roughly 310,000 compounds showed an effect of 50% or more. Effects have a minus sign here. This is one part of the list.
# Molecular target: human ether-à-go-go-related gene (hERG) potassium channel (human, UniProt Q12809)
# Assay: primary screen, population patch clamp on CHO cells stably expressing hERG
# 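Further: peak tail current of the secondary pulse compared with the same well before compound.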
# Chain of human ether-à-go-go-related gene (hERG) potassium channel (Q12809 whole entry, looked up): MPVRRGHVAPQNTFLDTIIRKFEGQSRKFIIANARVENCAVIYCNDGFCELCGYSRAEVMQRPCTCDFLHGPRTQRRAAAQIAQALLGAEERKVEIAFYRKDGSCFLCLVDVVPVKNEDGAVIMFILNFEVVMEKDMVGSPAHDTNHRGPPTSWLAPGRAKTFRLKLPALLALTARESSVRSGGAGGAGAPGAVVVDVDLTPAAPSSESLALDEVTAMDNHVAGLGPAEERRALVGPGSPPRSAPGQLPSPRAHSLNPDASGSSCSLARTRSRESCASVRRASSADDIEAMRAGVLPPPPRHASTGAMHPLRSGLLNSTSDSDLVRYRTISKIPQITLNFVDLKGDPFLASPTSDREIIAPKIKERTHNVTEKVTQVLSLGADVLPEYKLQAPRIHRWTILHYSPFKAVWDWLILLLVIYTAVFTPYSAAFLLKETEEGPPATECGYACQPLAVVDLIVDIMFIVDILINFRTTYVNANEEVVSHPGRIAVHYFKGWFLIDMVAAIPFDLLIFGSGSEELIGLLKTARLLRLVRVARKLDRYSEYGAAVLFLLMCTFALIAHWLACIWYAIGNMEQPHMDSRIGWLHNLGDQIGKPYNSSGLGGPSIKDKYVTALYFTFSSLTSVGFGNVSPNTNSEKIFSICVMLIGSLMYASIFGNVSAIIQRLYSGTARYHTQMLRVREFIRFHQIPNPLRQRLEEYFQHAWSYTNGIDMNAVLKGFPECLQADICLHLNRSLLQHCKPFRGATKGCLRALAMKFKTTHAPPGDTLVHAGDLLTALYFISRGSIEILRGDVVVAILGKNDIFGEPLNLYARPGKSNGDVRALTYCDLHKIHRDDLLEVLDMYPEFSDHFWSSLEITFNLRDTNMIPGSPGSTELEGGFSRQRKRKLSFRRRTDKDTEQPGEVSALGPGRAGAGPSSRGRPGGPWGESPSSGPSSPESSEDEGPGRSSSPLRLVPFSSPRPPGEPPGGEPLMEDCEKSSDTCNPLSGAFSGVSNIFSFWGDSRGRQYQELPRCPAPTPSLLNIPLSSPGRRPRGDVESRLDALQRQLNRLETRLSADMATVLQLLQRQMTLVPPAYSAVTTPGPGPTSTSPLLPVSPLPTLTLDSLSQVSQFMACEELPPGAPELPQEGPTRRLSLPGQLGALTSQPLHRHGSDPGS
row,SMILES,"hERG current change (%, negative = inhibition) at 10uM"
1,C=C(C)CN(CC)c1nc(N)c2c(N)nc3c(c2c1C#N)CC(=O)N3C12CC3CC(CC(C3)C1)C2,10.5%
2,COC(=O)C1=C(c2ccc(OC)c(OC)c2)C[C@@H]2CC[C@H]1N2C(=O)NCC1CC1,15.1%
3,Cc1c(CCC(=O)O)c(=O)oc2cc(O)ccc12,12.1%
4,Fc1ccccc1N1CCN(Cc2nc(-c3ccc(Cl)cc3Cl)no2)CC1,-1.27%
5,CN(Cc1ccc(Cl)c(Cl)c1)C(=O)C1CSC2(C)CCC(=O)N12 (stereo not shown),-17%
6,COc1ccccc1CC(=O)NNC(=O)CN(C)S(=O)(=O)c1ccc(Cl)cc1,-1.75%
7,Cc1ccc(NS(=O)(=O)c2ccc(NC(=O)[C@@H]3CCCC[C@@H]3C(=O)O)cc2)c(C)c1,18%
8,O=C(Nc1cccn(Cc2ccccc2)c1=O)NC1CCCCC1,-33.3%
9,Cc1ccc(S(=O)(=O)C(C#N)c2nc3ccccc3nc2OCCO)cc1 (stereo not shown),5.71%
10,N/C(=N\OC(=O)c1cccc(Br)c1)c1ccccc1,7.87%
11,CC(=O)Nc1ccc(S(=O)(=O)N(C)c2ccc(OCC(=O)OCC(=O)N3CCCCC3)cc2)cc1,-2.99%
12,c1ccc2c(c1)Nc1nccnc1S2,14.6%
13,CC(=O)N(CCC(c1ccccc1)c1ccco1)Cc1cccs1 (stereo not shown),-52.9%
14,C/C(=N\OCC(=O)OCC(=O)N(C)c1ccccc1)c1ccc2c(c1)OCO2,0.0513%
15,Cc1ccc(-n2nnc3c(=O)n(CC(=O)OCc4ccccc4)cnc32)cc1,-4.86%
16,COC(=O)C(Cc1ccc(O)cc1)N1Cc2ccccc2C1=O (stereo not shown),16.2%
17,Cc1cc(C)c(C(=O)COC(=O)c2cccnc2Cl)c(C)c1,-3.81%
18,O=C(OCCOc1ccccc1Cl)c1ccc(-n2cnnn2)cc1,-19.2%
19,Cc1ccc(-c2csc(=S)n2CC(=O)OCC(=O)NCc2ccc(F)cc2)cc1,-7.49%
20,N#CC1=C(N)NC(=S)C(C(N)=O)C1c1ccc(Cl)cc1Cl (stereo not shown),29.3%
21,O=C(NC(Cc1ccccc1)c1nc2ccccc2[nH]1)c1ccc(Cl)c([N+](=O)[O-])c1 (stereo not shown),6.49%
22,CCN(CC)S(=O)(=O)c1ccc(NCCCn2ccnc2)c([N+](=O)[O-])c1,-57.2%

row,SMILES,"hERG current change (%, negative = inhibition) at 10uM"
1,Cc1nccn1C(c1ccccc1)c1ccccc1.O=C(O)C(=O)O,-10.9%
2,Cc1ccccc1C(=O)NNC(=O)C12CC3CC(CC(C3)C1)C2,2.76%
3,C#CC(C)(CC)NC(=O)c1cc2cccc(CC=C)c2oc1=O (stereo not shown),25.3%
4,O=C(C1CC=CCC1)N1CCC(CO)(Cc2ccc(Cl)cc2)CC1 (stereo not shown),-7.77%
5,COc1ccc2c(c1)c1nc3n(c(=O)c1n2CC(=O)Nc1cc(C)[nH]n1)CCS3,6.64%
6,Oc1c(C(Nc2nc3ccccc3s2)c2ccco2)ccc2cccnc12 (stereo not shown),10.7%
7,Cc1ccccc1CC1(CO)CCCN(C(=O)c2ccc(F)cc2)C1 (stereo not shown),14.2%
8,COc1cccc(NC(=O)CSc2nc(C3CC3)nc3ccccc23)c1,4.75%
9,O=C(c1cc2ccccc2o1)c1nc2c(n1O)CCCCC2,12.2%
10,CCCCNc1c(C(=O)OCC)c(=O)[nH]c2ccccc12,4.82%
11,CCOC(=O)COc1ccc(Br)cc1/C=C1\SC(N)=NC1=O,3.48%
12,Clc1cccc(CSc2nnc(-c3sccc3-n3cccc3)o2)c1,-1.88%
13,CCN(CC)CCNC(=O)c1ccc(NC(=O)c2ccc3c(c2)CCC3)cc1,-48.6%
14,Cc1ccc(C2(c3noc(CN(C)CCO)n3)CCCC2)cc1,12.2%
15,Cc1cccc(C(=O)Oc2c(Br)cc(Br)cc2/C=N/NC(=O)c2ccncc2)c1,1.95%
16,Cc1onc(-c2ccccc2)c1C(=O)OCC(=O)Nc1cccc(Cl)c1,-4.69%
17,COc1ccc2ccc(OC)c(/C=N/n3cnnc3)c2c1,-2.97%
18,CCNC(=O)CC1C(=O)N(c2ccc(F)cc2)C(=O)N1Cc1ccc(OC)cc1 (stereo not shown),-10.3%
19,Cc1ccc(OCC(=O)N2CCOCC2)cc1C,10.7%
20,c1ccc(-c2noc(C3CCC3)n2)nc1,4.59%
21,O=C(COC(=O)CCSc1ccccc1Cl)NCc1ccco1,6.44%
